Data as given in PubChem BioAssay AID662 (National Center for Advancing Translational Sciences (NCATS), 2007).
About 1,800 (2.5%) of roughly 71,000 compounds were called active. The shares of active, inactive and inconclusive entries below differ from those in the screen. The call rests on the fitted dose curve; in most records, active means well fitted activation curve with a large enough effect in the signal ratio, with a control signal flat (not every such curve was filed as active); inconclusive means small, poorly fitted or top-dose-only effect, or effect the other way, or a change in a side signal; inactive means flat fitted curve, though single readings scatter; the % refers to the signal ratio. Where the call is inconclusive, the potency comes from a doubtful curve fit.

test: Cell signaling CRE-BLA (Fsk stim); settings: CHO CRE-bla reporter (cAMP response element driving beta-lactamase), forskolin EC10, beta-lactamase ratio; activity change, negative = inhibition: at 38.2 µM (top of the series) unless noted; on activity change, negative = inhibition: % of control where 0% means no effect
In short: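 Forskolin analogue NKH 477 at EC10 stimulated CRE-driven beta-lactamase in CHO cells alongside compound dilution series. Beta-lactamase was measured with CCF4, excitation 405 nm, emission ratio 460/530 nm.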
Potency means the concentration at half of the fitted maximal effect; tags describe the fitted curve by direction and shape.

Row | SMILES | Potency | activity change, negative = inhibition
1 | CCN1C(=O)c2cccc3c(NC(=O)c4cccc(N5C(=O)CCC5=O)c4)ccc1c23 | inconclusive: 10 µM [rising, partial curve] | –
2 | CCOC(=O)CSc1nc(N)c(C#N)c(-c2ccc(OCC)cc2)c1C#N | – | inconclusive: 24.3%
3 | O=C(O)CCC(=O)N1CCc2cc(S(=O)(=O)NC3CCCc4ccccc43)ccc21 (stereo not given) | – | inconclusive: -1.52%
4 | CCOC(=O)c1c(C)[nH]c2cc(Br)c(O)cc12 | active: 10 µM | –
5 | Cc1onc(-c2c(F)cccc2Cl)c1C(=O)N1CCc2ccccc2C1 | inconclusive: 5.01 µM [falling, single point] | –
6 | CCc1ccc2oc(-c3cc(N)ccc3O)nc2c1 | – | inactive: -7.38%
7 | Cc1nc2ncnn2c(Nc2ccc3c(c2)OCO3)c1Cc1ccccc1 | inconclusive: 12.6 µM [rising, single point] | –
8 | CC(=O)c1c(O)c(C)c(O)c2c1OC1=CC(=O)[C@H](C(C)=O)C(=O)[C@]12C | – | inconclusive: 33.7%
9 | O=C(c1ccccc1Cl)N1CCC(c2nc3c(nnn3Cc3ccco3)c(=O)[nH]2)CC1 | active: 10 µM | –
10 | Cn1c(=O)cc(OCCCC(=O)N2CCCCC2)c2ccccc21 | inconclusive: 6.31 µM [rising, partial curve] | –
11 | OCc1ccc(-c2nn(Cc3ccccc3)c3ccccc23)o1 | – | inactive: -13.7%
12 | NCCC(=O)N[C@@H](Cc1cnc[nH]1)C(=O)O | – | inactive: -15.6%
13 | Cc1ccc2[nH]c(=O)c(CNC(C)(C)C)cc2c1 | – | inconclusive: -8.22%
14 | Cn1c(=O)n(C/C=C/c2ccccc2)c(=O)c2c1nc1n2CCCN1c1ccc(F)cc1 | – | inconclusive: 20%
15 | O=C(O)[C@H]([C@H]1NCCS1)N1C(=O)c2ccccc2C1=O | – | inactive: -1.26% [at 7.6 µM]
16 | Cc1nn(-c2ccccc2)c2[nH]c(=O)c(CNCc3ccc4c(c3)OCO4)cc12 | – | inconclusive: 23.5%
17 | Nc1ncnc2c1ncn2[C@H]1O[C@@H](C(=O)O)[C@@H](O)[C@H]1O | – | inactive: 2.81% [at 7.6 µM]
18 | CCOc1cc(NS(C)(=O)=O)c(OCC)cc1NC(=O)c1cccs1 | inconclusive: 10 µM [rising, single point] | –
19 | COC(=O)c1cn(NC(=O)C2CCCCC2)c(=O)c2ccccc12 | – | inconclusive: 12.7%
20 | C1CCN2C[C@@H]3C[C@@H](CN4CCCC[C@H]34)[C@H]2C1 | – | inactive

Row | SMILES | Potency | activity change, negative = inhibition
21 | CCc1nc2ccccc2c(C(=O)OC2CCOC2=O)c1C (stereo not given) | inconclusive: 3.16 µM [rising, single point] | –
22 | Cc1cc(CN2C(=O)c3ccccc3C2=O)no1 | – | inactive: 2.07%
23 | CCOC(=O)C1=C(C)Nc2nc(SCc3cccnc3)nn2C1c1ccc(OC)cc1 (stereo not given) | inconclusive: 10 µM [rising, single point] | –
24 | COc1cccc(Cn2c(=O)c(C)nc3cnc(N4CCNCC4)nc32)c1 | inconclusive: 12.6 µM [rising, partial curve] | –
25 | CN1CCC[C@H](C(=O)OCC(=O)[C@]2(O)CC[C@@H]3[C@H]4CCC5=CC(=O)CC[C@@]5(C)[C@H]4[C@@H](O)C[C@]32C)C1 | – | inactive: -3.19% [at 7.6 µM]
26 | COC(=O)C(Cc1ccccc1)NC(=O)CSc1nc(N)cc(=O)[nH]1 (stereo not given) | – | inactive: -4.53%
27 | O=C(O)c1cc(-c2ccccc2)c(N2CCOCC2)s1 | inconclusive: 2 µM [falling, partial curve] | –
28 | C/C(=N\O)C(=O)NCc1ccccn1 | – | inconclusive: 9.29%
29 | COC(=O)C1(CCSC)NC(c2ccco2)C2C(=O)N(C)C(=O)C21 (stereo not given) | – | inactive: -0.839%
30 | COc1ccc(C2NCCO2)cc1OC (stereo not given) | – | inactive: 1.58%
31 | O=C(O)CCc1ccc(-c2ccc(F)cc2)n1CCC(=O)O | – | inactive: 2.91%
32 | CCSc1nnc(NC(=O)CSc2nc3c(c(=O)n2-c2ccccc2OC)SCC3)s1 | – | inconclusive: -0.66%
33 | COCCn1c(=O)c(-c2ccc(F)cc2)nc2cnc(OCc3ccccc3)nc21 | – | inconclusive: 7.79%
34 | COc1ccc(Cl)cc1NC(=O)Cn1cccc1 | – | inactive: 6.33%
35 | COc1ccc2[nH]cc(CCNc3ccnc(-c4ccccc4Cl)n3)c2c1 | – | inconclusive: -20.9%
36 | O=S(=O)(c1cnccc1N1CCN(CCO)CC1)N1CCCC1 | – | inactive: 14.7% [at 7.6 µM]
37 | Cc1onc(-c2ccccc2Cl)c1C(=O)Nc1ccc(-c2cn3cccnc3n2)cc1 | inconclusive: 10 µM [rising, single point] | –
38 | CC(C)CNC(=O)c1cc(-c2ccco2)on1 | – | inconclusive: 1.46%
39 | CCCc1cc(C(=O)Nc2sc(C)c(C)c2C(=O)OCC)no1 | active: 2 µM | –
40 | O=C(CSc1nc2c(sc3ccccc32)c(=O)n1CCO)NCC1CCCO1 (stereo not given) | – | inactive: 16.5%
